Assay results: publication PMC6212790
This is one part of the list. At the low end of the ranking the order means little.

These sequences were tested against T1, GST-Rok (full length) (UniProt O34857) (assay: protein binding microarray). Conditions: Rok is a gene silencer of Bacillus subtilis; high values mean tight binding; most listed sequences are background and not binding sites; double strand, one strand shown.
T1 sequence: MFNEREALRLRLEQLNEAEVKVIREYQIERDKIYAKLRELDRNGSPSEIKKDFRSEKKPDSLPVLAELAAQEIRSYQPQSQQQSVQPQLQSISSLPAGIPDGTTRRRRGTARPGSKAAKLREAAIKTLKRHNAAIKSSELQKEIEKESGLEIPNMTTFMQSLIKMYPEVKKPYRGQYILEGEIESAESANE
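Further: rank score from −0.5 (least bound) to 0.5 (best bound).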

Row | Sequence | binding signal
1 | AAGATACA | 0.186 E-score
2 | CCAAGCAA | 0.0204 E-score
3 | GGAGCACC | -0.252 E-score
4 | CTGTGCAA | 0.0148 E-score
5 | ACCATAAG | 0.172 E-score
6 | AGTTTCGG | 0.147 E-score
7 | AGAAGAAA | -0.121 E-score
8 | CTCAAGCC | -0.146 E-score
9 | CAATCCTC | -0.0929 E-score
10 | GGAGGTCA | -0.359 E-score
11 | TCAGTTCA | -0.0671 E-score
12 | CGTGAGAC | -0.125 E-score
13 | AATAAATG | 0.295 E-score
14 | ACTGTCGG | -0.0251 E-score
15 | CCGTTGAG | -0.0934 E-score
16 | AGATGCTC | -0.129 E-score
17 | CTAGGCCA | -0.176 E-score
18 | AGCTGGGC | -0.312 E-score
19 | ATTCTCAA | 0.0615 E-score
20 | AGACAGGA | -0.136 E-score
21 | ACACATAG | 0.184 E-score
22 | ATCAATGG | 0.0191 E-score
23 | ACAAAGGA | -0.106 E-score
24 | AAGCAACA | -0.00135 E-score
25 | TGTCAAAA | -0.0181 E-score

Row | Sequence | binding signal
26 | GCTTGCCC | -0.316 E-score
27 | AGGTGGGG | -0.461 E-score
28 | ACACCGGG | -0.333 E-score
29 | CTGACTTA | 0.127 E-score
30 | CCTCAAAC | -0.161 E-score
31 | CGGCCACC | -0.242 E-score
32 | GGTTCTCA | -0.09 E-score
33 | ATTGAGCG | -0.126 E-score
34 | CGCCGATA | 0.205 E-score
35 | CCCCCGAG | -0.409 E-score
36 | CAAGAGTC | -0.0869 E-score
37 | ACTACCAT | 0.352 E-score
38 | GGCTGATA | -0.0429 E-score
39 | ACATGGAA | 0.163 E-score
40 | ATCTAGTG | 0.307 E-score
41 | CACTTATC | 0.23 E-score
42 | CTATAAAA | 0.23 E-score
43 | CGCTTTAG | -0.0872 E-score
44 | GAATTCGC | 0.0821 E-score
45 | ACCCTTCA | -0.24 E-score
46 | AATGTTGG | 0.137 E-score
47 | CCTCTTCG | -0.295 E-score
48 | CAGAATCC | -0.107 E-score
49 | ACGTGCAA | 0.055 E-score
50 | CCCATAGA | -0.0828 E-score

Row | Sequence | binding signal
51 | GATACGTA | 0.245 E-score
52 | AACCGTAC | 0.0539 E-score
53 | CCATTAGA | 0.0381 E-score
54 | AAGAAGTG | 0.147 E-score
55 | TTCGCGAA | 0.0408 E-score
56 | TCTTCTCA | 0.009 E-score
57 | ACTGCTTA | 0.21 E-score
58 | ACTGTTAG | 0.196 E-score
59 | ACAGATCT | 0.124 E-score
60 | ACAGCATA | 0.0549 E-score
61 | CATACCCC | -0.0589 E-score
62 | CCTGTAAC | 0.0187 E-score
63 | ATATTCAA | 0.199 E-score
64 | GCCTAGTA | 0.0849 E-score
65 | AGGTGAAC | -0.0811 E-score
66 | GACGTCAC | -0.144 E-score
67 | AGGTCGCA | -0.234 E-score
68 | AGCTGCAA | -0.0171 E-score
69 | CCTGGCCC | -0.172 E-score
70 | CACTTCAG | -0.0539 E-score
71 | AGAGCTCG | -0.14 E-score
72 | ATGTACTC | 0.209 E-score
73 | GATTGCCC | -0.238 E-score
74 | AGCGGTTA | -0.138 E-score
75 | CGGTGAAG | -0.168 E-score

Row | Sequence | binding signal
76 | ACTTTGCG | 0.202 E-score
77 | GAAAGCCC | -0.268 E-score
78 | AAAATTCC | -0.0798 E-score
79 | GATAAGCC | -0.213 E-score
80 | CCTAACCA | -0.243 E-score
81 | GAGCAGGA | -0.33 E-score
82 | CCTGTCTC | -0.264 E-score
83 | GGCCGCCC | -0.365 E-score
84 | ATGATAAA | 0.24 E-score
85 | TATTGCGA | 0.172 E-score
86 | GGATTCCC | -0.187 E-score
87 | AGGGTACA | -0.132 E-score
88 | AGCGGATC | -0.112 E-score
89 | CATCATGA | 0.125 E-score
90 | AGTTTACC | 0.22 E-score
91 | GGACATGA | -0.24 E-score
92 | GATTGGGA | -0.296 E-score
93 | TACTGTGA | 0.167 E-score
94 | ACTACTCG | 0.187 E-score
95 | GTTCCGGA | -0.141 E-score
96 | GTTCGGAA | -0.0385 E-score
97 | GCCGAGGC | -0.19 E-score
98 | AATCCCTG | -0.089 E-score
99 | GCGGCACC | -0.235 E-score
100 | ATAAAAGC | 0.0546 E-score

Row | Sequence | binding signal
101 | AGCGCTAA | 0.0455 E-score
102 | GACTGTGC | -0.12 E-score
103 | CCTACTCC | -0.13 E-score
104 | GACGGTCC | -0.264 E-score
105 | AGGCGTGG | -0.162 E-score
106 | TAGGCTAA | -0.112 E-score
107 | CGGATCGA | -0.0589 E-score
108 | ATGGTGGC | -0.127 E-score
109 | GTACACAC | -0.0444 E-score
110 | GTCGAGTA | 0.087 E-score
111 | ATGTCGGA | 0.0398 E-score
112 | CGCTATAC | -0.0281 E-score
113 | CAAGGTCG | -0.126 E-score
114 | CTTGATGC | -0.158 E-score
115 | TCGGTGCA | -0.0568 E-score
116 | ATACATAG | 0.391 E-score
117 | AAATGGTC | 0.025 E-score
118 | CACCCCTG | -0.28 E-score
119 | CACGGCGC | -0.218 E-score
120 | AATTTCTA | 0.344 E-score
121 | CAAACGAG | -0.0893 E-score
122 | TGCCGGCA | -0.254 E-score
123 | ACAATGTA | 0.275 E-score
124 | CACTTACC | -0.0246 E-score
125 | ATGGCGCA | -0.117 E-score

Row | Sequence | binding signal
126 | ATTTTGTA | 0.232 E-score
127 | CAGGTTCA | -0.104 E-score
128 | CAGATCGC | -0.176 E-score
129 | AAAGGACT | -0.179 E-score
130 | CGGCTGAC | -0.0945 E-score
131 | CGCATTCC | -0.192 E-score
132 | CACGTATA | 0.243 E-score
133 | AGTAAGTA | 0.262 E-score
134 | CCAGCCCA | -0.331 E-score
135 | ACGCACTA | 0.204 E-score
136 | AGCACCGG | -0.275 E-score
137 | CTGATATA | 0.204 E-score
138 | AAGTCCAA | -0.111 E-score
139 | ATCGGAGG | -0.368 E-score
140 | CTCAGCCA | -0.183 E-score
141 | CCTAGACG | -0.169 E-score
142 | ACAATCGT | 0.0173 E-score
143 | CTGCCATC | -0.285 E-score
144 | CGACGTCA | -0.0313 E-score
145 | GGAGAAAC | 0.0274 E-score
146 | GTAGACAA | -0.0127 E-score
147 | GGACACGA | -0.177 E-score
148 | AAACCCTT | -0.153 E-score
149 | CGAGTAAA | 0.0537 E-score
150 | CGGTGCCA | -0.362 E-score

Row | Sequence | binding signal
151 | GTCGATTA | 0.139 E-score
152 | ATATCGTC | 0.182 E-score
153 | CTTCCGGA | -0.156 E-score
154 | CACAGCCG | -0.136 E-score
155 | CAAGTTTA | 0.00675 E-score
156 | GTTAAAGA | -0.0952 E-score
157 | CATCCCAA | -0.0485 E-score
158 | CGTAACAA | 0.0434 E-score
159 | CATCAGTC | -0.00175 E-score
160 | TCTCAAGA | -0.138 E-score
161 | CAGTGACC | -0.197 E-score
162 | AACTCTAC | 0.249 E-score
163 | ACATTACC | 0.168 E-score
164 | AATAACAC | 0.18 E-score
165 | AGGACTAC | -0.0384 E-score
166 | CAAAATCA | 0.118 E-score
167 | ATTACGGA | 0.176 E-score
168 | CCACGTGG | -0.121 E-score
169 | ATTATACC | 0.269 E-score
170 | ATTAGCCG | -0.0406 E-score
171 | GAGGCTCA | -0.246 E-score
172 | ATGCGCTC | -0.0342 E-score
